According to the RNAGym collection of RNA variant scans (doi:10.1093/nar/gkz1192):
Read counts are not given, so values of variants with three or more changes are uncertain.

B1: CPEB3 Ribozyme (parent)
chain: UAACAGGGGGCCACAGCAGAAGCGUUCACGUCGCAGCCCCUGUCAGAUUCUGGUGAAUCUGCGAAUUCUGCUGUAUAUCUC

Variants of: B1
Assay: self-cleavage, relative activity (ratio to wild type); higher = more cleavage; in vitro, sequencing
Summary of the method: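 Barcoded CPEB3 ribozyme mutants, produced by rounds of error-prone PCR, self-cleaved while being transcribed with T7 RNA polymerase for 5 hours at 37°C and during a subsequent 15 min DNase I step before EDTA was added. Sequencing of template-switched cDNA on Illumina gave cleaved and total reads, and DNA sequencing assigned barcodes to variants. Each variant's relative activity is its cleaved/total read fraction divided by the unmutated ribozyme's fraction, averaged across three batches. A variant needed a minimum of 5 reads.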

Variant | self-cleavage
UAACAGGGGGCCACAGCAGAAGCGUUCACGUCGCAGCCCCUGUCAGAUCCUGGUGAAUCUGCGAGUCCUGCUGUAUAUCCC [U49C A65G U67C U80C] | 0.11
UAACAGGGGGCCACAGCAGAAGCGUUCACGUCGCAGCCCCUGUCAGAUCCUGGUGAAUCUGCGAGUUCUGCUGCAUAUCUC [U49C A65G U74C] | 0.14
UAACAGGGGGCCACAGCAGAAGCGUUCACGUCGCAGCCCCUGUCAGAUCCUGGUGAAUCUGCGAGUUCUGCUGUAUACCUA [U49C A65G U78C C81A] | 0.1
UAACAGGGGGCCACAGCAGAAGCGUUCACGUCGCAGCCCCUGUCAGAUCCUGGUGAAUCUGCGAAUUCUGCUGUAUGCCUC [U49C A77G U78C] | 0.42
UAACAGGGGGCCACAGCAGAAGCGUUCACGUCGCAGCCCCUGUCAGAUCAUGGUGAAUCUGCGAACUCUGCUGUAUAUCUC [U49C C50A U66C] | 0.25
UAACAGGGGGCCACAGCAGAAGCGUUCACGUCGCAGCCCCUGUCAGAUCGUGGUGAAUCUGCGAAUUCUGCUGCAUAUCUC [U49C C50G U74C] | 1.13
UAACAGGGGGCCACAGCAGAAGCGUUCACGUCGCAGCCCCUGUCAGAUCCUGGUGAAUUUGCGAAUUCUGCUGUAUAUCAC [U49C C59U U80A] | 0.23
UAACAGGGGGCCACAGCAGAAGCGUUCACGUCGCAGCCCCUGUCAGAUCCUAGUGAAUCUACGAAUUCUGCUGUAUAUCUC [U49C G52A G61A] | 0.16
UAACAGGGGGCCACAGCAGAAGCGUUCACGUCGCAGCCCCUGUCAGAUCCUAGUGAACCUGCGAAUUCAGCUGUAUAUCUC [U49C G52A U58C U69A] | 0.19
UAACAGGGGGCCACAGCAGAAGCGUUCACGUCGCAGCCCCUGUCAGAUCCUGACGAAUCUGCGAACUCUGCUGUAUAUCUC [U49C G53A U54C U66C] | 0.14
UAACAGGGGGCCACAGCAGAAGCGUUCACGUCGCAGCCCCUGUCAGAUCCUGCUGAAUCUGCGAAUUCUGCAGUAUAUCUC [U49C G53C U72A] | 0.24
UAACAGGGGGCCACAGCAGAAGCGUUCACGUCGCAGCCCCUGUCAGAUCCUGGUCGAUCUGCGAAUUCUGCUGUAUAUCCC [U49C G55C A56G U80C] | 1.24
UAACAGGGGGCCACAGCAGAAGCGUUCACGUCGCAGCCCCUGUCAGAUCCUGGUCAAUCUGCGAAUUCUGCUGUAUAUCCC [U49C G55C U80C] | 0.37
UAACAGGGGGCCACAGCAGAAGCGUUCACGUCGCAGCCCCUGUCAGAUCCUGGUUAAUUUGCGAAUUCUGCUGUAUAUCUC [U49C G55U C59U] | 0.1
UAACAGGGGGCCACAGCAGAAGCGUUCACGUCGCAGCCCCUGUCAGAUCCUGGUUAAUCCGCGAAUUCUGCUGUGUAUCUC [U49C G55U U60C A75G] | 0.15
UAACAGGGGGCCACAGCAGAAGCGUUCACGUCGCAGCCCCUGUCAGAUCCUGGUGAAUCUACGAAUUCUGCUGUAUGUCUC [U49C G61A A77G] | 0.38
UAACAGGGGGCCACAGCAGAAGCGUUCACGUCGCAGCCCCUGUCAGAUCCAGGUGAAUCUGCGAGUUCUGCUGUAUAUCUC [U49C U51A A65G] | 0.22

Variant | self-cleavage
UAACAGGGGGCCACAGCAGAAGCGUUCACGUCGCAGCCCCUGUCAGAUCCAGGGGAAUCUGCUAAUCCUGCUGUAUAUCUC [U49C U51A U54G G63U U67C] | 0.07
UAACAGGGGGCCACAGCAGAAGCGUUCACGUCGCAGCCCCUGUCAGAUCCAGGUGAAUCAGCGAAUUCUGCUGUAUAUCUC [U49C U51A U60A] | 0.19
UAACAGGGGGCCACAGCAGAAGCGUUCACGUCGCAGCCCCUGUCAGAUCCAGGUGAAUCUGCGAAUUCCGCUGUAUAUCUC [U49C U51A U69C] | 0.25
UAACAGGGGGCCACAGCAGAAGCGUUCACGUCGCAGCCCCUGUCAGAUCCCGGUGAAUCUGCGGAUUCUGCUGUAUAUCUC [U49C U51C A64G] | 0.2
UAACAGGGGGCCACAGCAGAAGCGUUCACGUCGCAGCCCCUGUCAGAUCCCGGGGAAUCCGCGAAUUCUGCUGUAUAUCUC [U49C U51C U54G U60C] | 0.12
UAACAGGGGGCCACAGCAGAAGCGUUCACGUCGCAGCCCCUGUCAGAUCCCGGUGAAUCUGCGAAUUCUGCUGUAAGUCUC [U49C U51C U76A A77G] | 0.14
UAACAGGGGGCCACAGCAGAAGCGUUCACGUCGCAGCCCCUGUCAGAUCCUGGAGAUUCUCCGAAUUCUGCUGUAUAUCUC [U49C U54A A57U G61C] | 0.15
UAACAGGGGGCCACAGCAGAAGCGUUCACGUCGCAGCCCCUGUCAGAUCCUGGAGAAUCAGCGAAUUCUGCUGUAUAUCUC [U49C U54A U60A] | 0.11
UAACAGGGGGCCACAGCAGAAGCGUUCACGUCGCAGCCCCUGUCAGAUCCUGGAGAAUCCGCGAAUUCUGCUGUAUAUCUC [U49C U54A U60C] | 0.21
UAACAGGGGGCCACAGCAGAAGCGUUCACGUCGCAGCCCCUGUCAGAUCCUGGCGGAUCUGCGAAUUCUGCUGUAUACCUC [U49C U54C A56G U78C] | 1.1
UAACAGGGGGCCACAGCAGAAGCGUUCACGUCGCAGCCCCUGUCAGAUCCUGGCGAAUCUGCGAGUUCUGCUGCAUACCUC [U49C U54C A65G U74C U78C] | 0.23
UAACAGGGGGCCACAGCAGAAGCGUUCACGUCGCAGCCCCUGUCAGAUCCUGGCGAAUCUGCGAAAUCUGCUGUAUGCCUC [U49C U54C U66A A77G U78C] | 0.11
UAACAGGGGGCCACAGCAGAAGCGUUCACGUCGCAGCCCCUGUCAGAUCCUGGCGAAUCUGCGAAUUCUGCUGUACAUCUC [U49C U54C U76C] | 0.32
UAACAGGGGGCCACAGCAGAAGCGUUCACGUCGCAGCCCCUGUCAGAUCCUGGCGAAUCUGCGAAUUCUGCUGUAUACCUC [U49C U54C U78C] | 0.41
UAACAGGGGGCCACAGCAGAAGCGUUCACGUCGCAGCCCCUGUCAGAUCCUGGGGAGUCUGCGAACUCUGCUGUAUAUCUC [U49C U54G A57G U66C] | 0.16
UAACAGGGGGCCACAGCAGAAGCGUUCACGUCGCAGCCCCUGUCAGAUCCUGGGGAACCUGCGAACUCUGCUGUAUAUCUC [U49C U54G U58C U66C] | 0.07
UAACAGGGGGCCACAGCAGAAGCGUUCACGUCGCAGCCCCUGUCAGAUCCUGGUGAAACUGCGAAUUCUGCUGAAUAUCUC [U49C U58A U74A] | 0.16
